The whole screen tested about 360,000 compounds, of which about 17,000 (4.7%) were called active. The shares of active, inactive and inconclusive entries below differ from those in the screen. No stated cut-off is given here; in the data, active means activity change below about -50%; inconclusive means mostly about -30% to -49%; inactive means weaker than that.
Experiment: qHTS for Inhibitors of Inflammasome Signaling: IL-1-beta AlphaLISA Primary Screen
Conditions: THP-1 LPS/ATP IL-1B secretion, 16 h; at 57.5 µM, hits give low values
Procedure, shortened: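 THP-1 cells pretreated 1 hr with compounds (up to 57.5 uM final), then stimulated with LPS (250 ng/mL final) plus ATP (1.25 mM final); secreted IL-1B measured by AlphaLISA after 16 hr, decreased signal indicating inhibition.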
In the case of `CCN(Cc1ccc(Cl)s1)C(=O)c1cccc(OCc2c(C)noc2C)c1`, the activity change is reported as inconclusive: -43.3%.
In the case of `COc1ccc(-c2noc(CCC(=O)N3CCN(c4cccc(C(F)(F)F)c4)CC3)n2)cc1`, the activity change is reported as inconclusive: -36.6%.
With `O=C(Nc1ccccc1Cl)C1C(c2ccccc2)C1(Cl)Cl` (centres undefined) the activity change was inconclusive: -31.9%.
For `CC(C)CC(NC(=O)C1CCC(C)CC1)C(=O)Nc1ccc2c(c1)OCCO2` (centres undefined), the activity change was inactive: -26%.
For `CCN(CC)S(=O)(=O)c1cccc(C(=O)OCC(=O)NC(C)c2ccccc2)c1` (centres undefined), the activity change was inactive: 9.71%.
In the case of `Cc1ccc(S(=O)(=O)Nc2ccc3c(c2)c2c(n3S(=O)(=O)c3ccc(C)cc3)CCCC2=O)cc1`, the activity change is reported as inactive: 24.9%.
With `Cc1ccc(S(=O)(=O)Oc2ccc(/C=C3/N=C(c4ccccc4)OC3=O)cc2)cc1` the activity change was inconclusive: -33.4%.
In the case of `CCN(CC)CCSc1nnc2c3ccccc3n(CCc3ccccc3)c2n1`, the activity change is reported as inconclusive: -43.3%.
For `COc1ccc(NC(=O)COc2ccc(N(C)S(=O)(=O)c3ccc(C)cc3)cc2)cc1`, the activity change was inconclusive: -31.7%.
With `CCc1ccc(C(=O)/C=C/c2cnn(C)c2C)s1` the activity change was inconclusive: -42.9%.
For `Cc1cccc(NC(=O)CSCC(=O)N(C)CCOc2ccc(Cl)cc2)c1`, the activity change was inconclusive: -49.5%.
For `O=C(CCCN1C(=O)/C(=C\c2cccc(Br)c2)SC1=S)Nc1cccnc1`, the activity change was active: -51%.
With `Cc1ccc(NC(=O)Nc2cccnc2)cc1Cl` the activity change was inconclusive: -44.4%.
For `CC(=O)Nc1cc(-c2ccccc2N(C)C)cn2c(-c3ccc(F)c(Cl)c3)cnc12`, the activity change was inconclusive: -34%.
For `COc1cccc(C2=NN(C(=O)c3ccc(C)o3)C(O)(C(F)(F)F)C2)c1` (centres undefined), the activity change was inconclusive: -49.3%.
In the case of `COc1ccccc1-c1ccc2c(c1)C(C)(Cc1cccc(C#N)c1)C(=O)N2` (centres undefined), the activity change is reported as inactive: -9.48%.
In the case of `Cc1ccc(N=C2N=C(N)c3ccccc32)c(C)c1`, the activity change is reported as inconclusive: -36.9%.
For `CCCN(CC1COc2ccccc2O1)C(=S)Nc1ccc(C)cc1` (centres undefined), the activity change was inconclusive: -34.7%.
In the case of `C/C(=N\OC(=O)c1ccc(OC(C)C)cc1)c1ccc(C)c(C)c1`, the activity change is reported as inconclusive: -33%.
For `Cc1ccc(C(=O)N/N=C/c2ccoc2)cc1C`, the activity change was inconclusive: -38%.
In the case of `COc1ccc(C)cc1NC(=O)c1ccccc1NS(=O)(=O)c1ccc(Cl)s1`, the activity change is reported as inconclusive: -38%.
For `NC(=O)[C@H]1CC2(CC(c3cccc(NC(=O)CC(c4ccccc4)c4ccccc4)c3)=NO2)CN1C(=O)CC(c1ccccc1)c1ccccc1` (some centres undefined), the activity change was inconclusive: -30.5%.
In the case of `O=C(NCC(=O)N1CCN(C(c2ccccc2)c2ccccc2)CC1)c1ccc(Br)o1`, the activity change is reported as active: -72.9%.
In the case of `O=C(N/N=C/c1cccs1)c1cc(-c2cccc3ccccc23)n[nH]1`, the activity change is reported as active: -52%.
For `C[C@@H](C(=O)Nc1ccc2ccccc2c1)[C@H]1C[C@]1(C)[C@H](NS(=O)(=O)c1ccccc1)c1ccccc1`, the activity change was inconclusive: -42.7%.
For `O=C(N/N=C/C(Br)=C/c1ccccc1)c1ccncc1`, the activity change was active: -83.6%.
For `COc1ccc(O)c(C(=O)c2cnc3onc(C(C)C)c3c2)c1`, the activity change was inconclusive: -33.5%.
In the case of `OC(COc1ccc(CNCCc2ccccc2F)cc1)CN1CCCCC1` (centres undefined), the activity change is reported as inconclusive: -42.9%.
In the case of `CSc1ccc(/C=C/C(=O)c2c(O)cc(C)oc2=O)cc1`, the activity change is reported as inactive: -19.5%.
In the case of `N#Cc1ccc(C23CC4(C2)[C@H](CN(P(=O)(c2ccccc2)c2ccccc2)[C@@H]4c2ccccc2)C3c2ccc(Cl)nc2)cc1` (some centres undefined), the activity change is reported as inconclusive: -36.6%.
For `CCCCCCCCN1C(=O)[C@H](CC(=O)NCC2CCCCC2)C[C@@]2(C(=O)OCC)CCCC=C12`, the activity change was active: -51.3%.
With `CN(CC(=O)NCCc1ccccc1)S(=O)(=O)c1cccc2nsnc12` the activity change was inconclusive: -35.7%.
In the case of `Cc1cc2nc(C)n(CCCNC(=O)Nc3ccc(F)cc3)c2cc1C`, the activity change is reported as inconclusive: -41.2%.
For `CCOC(=O)c1c(S(=O)(=O)NCC(=O)N2CCN(c3ccc(OC)cc3)CC2)c(C)n(C)c1C`, the activity change was inconclusive: -35.2%.
With `CCc1c(-c2ccc(Cl)cc2)ncn1Cc1cccc(-c2ccccc2)c1` the activity change was inactive: -17.7%.
For `COc1ccc(/C=N\NC(=O)C2CCCC2)cc1Br`, the activity change was inconclusive: -31.6%.
In the case of `N=c1sccn1CC(=O)NCc1ccc(Cl)cc1Cl`, the activity change is reported as inactive: -3.41%.
For `Cc1cc(C)c(S(=O)(=O)Nc2nccs2)c(C)c1`, the activity change was inactive: 0.689%.
For `CCN1CCN(c2cc(N3CCN(C(=O)c4ccco4)CC3)c3c4c(onc24)-c2ccccc2C3=O)CC1`, the activity change was active: -51.9%.
In the case of `CCOC(=O)CCCCC(=O)c1[nH]c(=O)[nH]c1CSc1nc(C)cc(=O)[nH]1`, the activity change is reported as inconclusive: -30.8%.
With `O=C(COc1ccccc1Cl)Nc1cccnc1` the activity change was inconclusive: -46.6%.
For `CCCCNS(=O)(=O)c1ccc(NC(=O)C2CCCO2)cc1` (centres undefined), the activity change was inactive: 12.5%.
In the case of `Cc1ccc(NC(=O)c2ccc(S(=O)(=O)N3CCCC3)cc2)cc1`, the activity change is reported as inconclusive: -46.6%.
For `CCOC(=O)N1CCN(C(=O)C[C@@H]2C[C@@]3(C(=O)OC)CC(C)(C)CC=C3N(Cc3cccc4ccccc34)C2=O)CC1`, the activity change was inactive: -22%.
With `Cc1ccc(-c2csc(NC(=O)C[n+]3cc(-c4ccccc4)n4c3CCC4)n2)cc1` the activity change was active: -87.4%.
In the case of `COc1ccc(S(=O)(=O)N2CCCC(C(=O)N3CCN(Cc4ccccc4)CC3)C2)cc1Cl` (centres undefined), the activity change is reported as inconclusive: -32.3%.
For `Cc1ccc(NC(=O)CN(C)C(=O)c2cccnc2Nc2cccc(C(F)(F)F)c2)cc1`, the activity change was active: -78.9%.
For `O=C(NCCCN1CCOCC1)c1ccc2c(c1)N(Cc1ccccc1)CCS2`, the activity change was inconclusive: -46.4%.
With `Cc1ccc(OCC(=O)Nc2ccc3c(c2)OCCO3)cc1C` the activity change was active: -67.2%.
In the case of `COc1cc(C(=O)OC2CC3CCC2(C)C3(C)C)ccc1OC(C)=O` (centres undefined), the activity change is reported as inactive: -8.88%.
For `COc1ccc(NC(=O)c2coc3ccccc23)cc1OC`, the activity change was inconclusive: -35.9%.
In the case of `CN(C)C(CNC(=S)Nc1cccc(Cl)c1)c1ccccc1` (centres undefined), the activity change is reported as inconclusive: -46.2%.
In the case of `O=C(Cn1cc(C(F)(F)F)ccc1=O)N1CCc2ccccc2C1`, the activity change is reported as inactive: -0.11%.
In the case of `O=C(NCCN1CCC(n2c(=O)[nH]c3ccccc32)CC1)c1ccc(F)cc1`, the activity change is reported as inconclusive: -32.2%.

From PubChem BioAssay AID743279 (National Center for Advancing Translational Sciences (NCATS), 2014)
On the % scale 0 is the no-effect control and ±100 the full control effect.
